Measured values: PubChem BioAssay AID686978 (National Center for Advancing Translational Sciences (NCATS), 2013)
Out of some 420,000 compounds screened, about 64,000 (15%) were called active. Inconclusive means that the source gave no clear call. Such entries were picked first, then a sample of the others. The call rests on the fitted dose curve; in most records, active means well fitted inhibition curve with a large enough effect; inconclusive means small, poorly fitted or top-dose-only effect; inactive means flat fitted curve, though single readings scatter. Potencies of inconclusive entries are left out as doubtful fits.

test: qHTS for Inhibitors of human tyrosyl-DNA phosphodiesterase 1 (TDP1): qHTS in cells in absence of CPT; settings: DT40 Tdp1-/- hTDP1 cells, no CPT, ATP luminescence, 48 h; series mostly up to 46.2 µM; further: nearly all actives have a fitted effect of over 55% in size
Summary of the method: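 DT40 Tdp1-/-;hTDP1 cells, no CPT (DMSO vehicle only), 400 cells/well; compounds pin-transferred; ≥48 hr, 37 °C; CellTiter-Glo 30 min RT dark, luminescence read.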
Potency means the concentration at half of the fitted maximal effect; tags describe the fitted curve by direction and shape.

Row | SMILES | Potency
1 | CCOc1cc(C(=S)N2CCOCC2)ccc1OS(=O)(=O)c1ccccc1 | inconclusive [inhibitor, single point]
2 | Cn1c(=O)c2c(nc(Cc3ccccc3)n2C)n(C)c1=O | inactive
3 | COc1nc(N2CCCCCC2)nc(N2CCCCCC2)n1 | inconclusive [inhibitor, partial curve]
4 | Cc1cc(=O)c2ccc(C(F)(F)F)cc2[nH]1 | inconclusive [inhibitor, single point]
5 | COc1cc(CCCN2C(=O)C(=O)NC[C@@H]2Cc2ccc(O)cc2)cc(OC)c1OC | inactive
6 | O=C(COc1ccc(F)c(Cl)c1)Nc1ccc(N2CCOCC2)cc1 | inconclusive [inhibitor, single point]
7 | COc1ccc([C@@H]2[C@@H]3C(=O)N(C(C)(C)C)C(=O)[C@@H]3[C@]3(CC(C)C)C(=O)N(c4ccccc4)C(=O)N23)cc1 | inactive
8 | C#CCOCCOCCOCCNc1nc(N2CCN(C(=O)CCCCCCCCCCNC(=O)[C@H]([C@@H](C)CC)n3cc(CCCCN=C(N)N)nn3)CC2)nc(N2CCN(C(=O)CCCCCCCCCCNC(=O)[C@H](CO)n3cc(CCCSC)nn3)CC2)n1 | active: 8.2 µM
9 | CCc1ccc(-c2cc3c(=O)n(CC(=O)N4CCCCCC4)nc(C)n3n2)cc1 | inactive
10 | CCOC(=O)c1ccc(NC(=O)CC2C(=O)N(c3cccc(OC)c3)C(=O)N2C2CCCCC2)cc1 (centres undefined) | active: 20.6 µM
11 | O=C(CCc1ccccc1)NC1C2CC3CC(C2)CC1C3 (centres undefined) | inconclusive [inhibitor, single point]
12 | Cc1cc(C)c(S(=O)(=O)N2CCCC(C(=O)NC3CCCC3)C2)c(C)c1 (centres undefined) | active: 20.6 µM
13 | O=C(Nc1ccccc1)Nc1nnc(/C=C/c2ccccc2Cl)s1 | inconclusive [inhibitor, single point]
14 | Cn1nccc1CNC(=O)c1c(Cl)cnn1C | inactive
15 | O=C(Oc1ccccc1C(=O)Oc1ccccc1)c1cccnc1 | inconclusive [inhibitor, single point]
16 | COc1ccc(C)cc1Nc1nc(-c2c(C)[nH]c3ccccc23)cs1 | inactive
17 | O=S(=O)(N1CCCCC1)N1CCN(c2ccc(F)cc2)CC1 | inactive
18 | COc1cc2c(cc1OC)CN(C(=O)COc1ccccc1[N+](=O)[O-])CC2 | inconclusive [inhibitor, single point]
19 | CCOC(=O)[C@]12CCCC=C1N(Cc1ccccc1)C(=O)[C@H](CC(=O)NCc1ccc(C)o1)C2 | inconclusive [inhibitor, single point]
